# Test results reported in the supplement of paper PMC8728848.
# This is one part of the list.
# B1: Pul13 (Thermotoga maritima), O33840 (protein)
# chain: ETTIVVHYHRYDGKYDGWNLWIWPVEPVSQEGKAYQFTGEDDFGKVAVVKLPMDLTKVGIIVRLNEWQAKDVAKDRFIEIKDGKAEVWILQGVEEIFYEKP
# Columns and labels:
# Experiment in all cases: glycan array binding signal (z-score within array); higher = stronger binding
# Settings in all cases: glycan notation: IUPAC condensed, linker removed
# [1] = target: Glc(b1-4)Glc(b1-4)Glc(b1-4)Glc(b1-4)Glc
# Method in brief: (§1)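 The binding signal is a Z-score computed within each array and averaged over linkers. Arrays of the same protein sequence at different concentrations or buffers were also averaged together. Data originate from 3228 arrays in the Consortium for Functional Glycomics database, kept only where the protein sequence was available.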
# [2] = target: Glc(b1-4)Glc(b1-4)Glc(b1-4)Glc(b1-4)Glc(b1-4)Glc
# Method in brief: as §1
# [3] = target: Glc(b1-4)Glc(b1-4)Glc(b1-4)Glc(b1-4)Glc(b1-4)Glc(b1-4)Glc
# Method in brief: as §1
# [4] = target: Glc(b1-4)Glc(b1-4)Glc(b1-4)Glc(b1-4)Glc(b1-4)Glc(b1-4)Glc(b1-4)Glc
# Method in brief: as §1
# [5] = target: Glc(b1-4)Glc(b1-4)Glc(b1-4)Glc(b1-4)Glc(b1-4)Glc(b1-4)Glc(b1-4)Glc(b1-4)Glc
# Method in brief: as §1
# [6] = target: Glc(b1-4)Glc(b1-4)Glc(b1-4)Glc(b1-4)Glc(b1-4)Glc(b1-4)Glc(b1-4)Glc(b1-4)Glc(b1-4)Glc
# Method in brief: as §1
# [7] = target: Glc(b1-4)Glc(b1-4)Glc(b1-4)Glc(b1-4)Glc(b1-4)Glc(b1-4)Glc(b1-4)Glc(b1-4)Glc(b1-4)Glc(b1-4)Glc
# Method in brief: as §1
# [8] = target: Glc(b1-4)Glc(b1-4)Glc(b1-4)Glc(b1-4)Glc(b1-4)Glc(b1-4)Glc(b1-4)Glc(b1-4)Glc(b1-4)Glc(b1-4)Glc(b1-4)Glc
# Method in brief: as §1
# [9] = target: Glc(b1-4)Glc(b1-4)Glc(b1-4)Glc(b1-4)Glc(b1-4)Glc(b1-4)Glc(b1-4)Glc(b1-4)Glc(b1-4)Glc(b1-4)Glc(b1-4)Glc(b1-4)Glc
# Method in brief: as §1
# Glc(b1-6)Glc = target: Glc(b1-6)Glc
# Method in brief: as §1
# Glc(b1-6)Glc(b1-6)Glc = target: Glc(b1-6)Glc(b1-6)Glc
# Method in brief: as §1
# [10] = target: Glc(b1-6)Glc(b1-6)Glc(b1-6)Glc
# Method in brief: as §1
# [11] = target: Glc(b1-6)Glc(b1-6)Glc(b1-6)Glc(b1-6)Glc
# Method in brief: as §1
# [12] = target: Glc(b1-6)Glc(b1-6)Glc(b1-6)Glc(b1-6)Glc(b1-6)Glc
# Method in brief: as §1
# [13] = target: Glc(b1-6)Glc(b1-6)Glc(b1-6)Glc(b1-6)Glc(b1-6)Glc(b1-6)Glc
# Method in brief: as §1
# [14] = target: Glc(b1-6)Glc(b1-6)Glc(b1-6)Glc(b1-6)Glc(b1-6)Glc(b1-6)Glc(b1-6)Glc
# Method in brief: as §1
# [15] = target: Glc(b1-6)Glc(b1-6)Glc(b1-6)Glc(b1-6)Glc(b1-6)Glc(b1-6)Glc(b1-6)Glc(b1-6)Glc
# Method in brief: as §1
# [16] = target: Glc(b1-6)Glc(b1-6)Glc(b1-6)Glc(b1-6)Glc(b1-6)Glc(b1-6)Glc(b1-6)Glc(b1-6)Glc(b1-6)Glc
# Method in brief: as §1
# [17] = target: Glc(b1-6)Glc(b1-6)Glc(b1-6)Glc(b1-6)Glc(b1-6)Glc(b1-6)Glc(b1-6)Glc(b1-6)Glc(b1-6)Glc(b1-6)Glc
# Method in brief: as §1
# [18] = target: Glc(b1-6)Glc(b1-6)Glc(b1-6)Glc(b1-6)Glc(b1-6)Glc(b1-6)Glc(b1-6)Glc(b1-6)Glc(b1-6)Glc(b1-6)Glc(b1-6)Glc(b1-6)Glc(b1-6)Glc(b1-6)Glc
# Method in brief: as §1
# [19] = target: Man(b1-4)Man(b1-4)Man(b1-4)Man
# Method in brief: as §1
# [20] = target: Man(b1-4)Man(b1-4)Man(b1-4)Man(b1-4)Man
# Method in brief: as §1
# [21] = target: Man(b1-4)Man(b1-4)Man(b1-4)Man(b1-4)Man(b1-4)Man
# Method in brief: as §1
# [22] = target: Xyl(b1-4)Xyl(b1-4)Xyl(b1-4)Xyl(b1-4)Xyl
# Method in brief: as §1
# [23] = target: Xyl(b1-4)Xyl(b1-4)Xyl(b1-4)Xyl(b1-4)Xyl(b1-4)Xyl
# Method in brief: as §1
binder,measurement,setting,value
B1,glycan array binding signal (z-score),[1],-0.351
same,glycan array binding signal (z-score),[2],-0.351
same,glycan array binding signal (z-score),[3],-0.351
same,glycan array binding signal (z-score),[4],-0.351
same,glycan array binding signal (z-score),[5],-0.351
same,glycan array binding signal (z-score),[6],-0.351
same,glycan array binding signal (z-score),[7],-0.35
same,glycan array binding signal (z-score),[8],-0.351
same,glycan array binding signal (z-score),[9],-0.347
same,glycan array binding signal (z-score),Glc(b1-6)Glc,-0.351
same,glycan array binding signal (z-score),Glc(b1-6)Glc(b1-6)Glc,-0.351
same,glycan array binding signal (z-score),[10],-0.351
same,glycan array binding signal (z-score),[11],-0.351
same,glycan array binding signal (z-score),[12],-0.351
same,glycan array binding signal (z-score),[13],-0.351
same,glycan array binding signal (z-score),[14],-0.351
same,glycan array binding signal (z-score),[15],-0.342
same,glycan array binding signal (z-score),[16],-0.351
same,glycan array binding signal (z-score),[17],-0.346
same,glycan array binding signal (z-score),[18],-0.32
same,glycan array binding signal (z-score),[19],-0.344
same,glycan array binding signal (z-score),[20],-0.351
same,glycan array binding signal (z-score),[21],-0.351
same,glycan array binding signal (z-score),[22],-0.347
same,glycan array binding signal (z-score),[23],-0.351
